Out of some 300,000 compounds screened, about 1,200 (0.4%) were called active. This list was built around the results that the source calls inconclusive (neither active nor inactive); the mix of calls is not that of the screen. The call rests on the fitted dose curve; in most records, active means well fitted inhibition curve with a large enough effect; inconclusive means small, poorly fitted or top-dose-only effect, or another doubt; inactive means no such curve, though single readings can be large or run the other way. A potency beside an inconclusive call is a rough fit, not a confirmed value.
biological target: Lysosomal alpha-glucosidase (Homo sapiens) (UniProt P10253); assay: qHTS Assay for Inhibitors and Activators of Human alpha-Glucosidase Cleavage of Glycogen; details: recombinant GAA, glycogen substrate, Amplex Red glucose oxidase fluorescence; series mostly up to 76.4 µM
Procedure, shortened: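 Recombinant enzyme (4 nM final) with compounds titrated up to 77 uM and bovine liver glycogen (30 ug) in citrate pH 5.0, 0.01% Tween-20, 37 C 40 min. Released glucose detected by Amplex Red/glucose oxidase (Ex 573/Em 610); AC50 from Hill fits.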
Potency means the concentration at half of the fitted maximal effect.

Q: With `CCN(CC)S(=O)(=O)c1ccc(NN=C2CCN(C(C)C)CC2)c([N+](=O)[O-])c1` as the compound, how does the Potency read?
A: The Potency was inconclusive: 12.6 µM [inhibitor, partial curve].

Q: For `O=C(c1ccc(CS(=O)c2ccccc2Cl)o1)N1CCN(c2cccc(C(F)(F)F)c2)CC1` (stereo not given), which Potency is on record?
A: The Potency was inconclusive: 11.2 µM [inhibitor, partial curve].

Q: How did the Potency turn out when `Cc1ccc(-c2nc3cnccn3c2Nc2ccccc2)o1` was run?
A: The Potency was inconclusive: 24.9 µM [inhibitor, single point].

Q: With `CC(=O)Nc1ccc2nc(NC(=O)COc3ccc(C)cc3)sc2c1` as the compound, how does the Potency read?
A: Its Potency is inconclusive: 8.84 µM [inhibitor, partial curve].

Q: For `CCOc1ccc(N2C(=O)C3Sc4[nH]c(=O)sc4C(c4ccc(OC)c(OC)c4)C3C2=O)cc1` (stereo not given), which Potency is on record?
A: Its Potency is inconclusive: 39.8 µM [inhibitor, partial curve].

Q: Which Potency does the source give for `BrC(=C\c1ccccc1)/C=N/Nc1nc2ccccc2[nH]1` here?
A: The Potency was inconclusive: 22.4 µM [inhibitor, partial curve].

Q: For `Cc1c(C(=O)NCc2ccccc2Cl)sc2nc3n(c(=O)c12)CCCCC3`, which Potency is on record?
A: The Potency was “inactive”.

Q: Which Potency does the source give for `N#Cc1cccc(NC(=O)Cn2cnc(S(=O)(=O)N3CCCCC3)c2)c1` here?
A: The Potency was inconclusive: 31.6 µM [inhibitor, single point].

Q: For `c1ccc2c(c1)Cc1cc3ccccc3nc1-2`, which Potency is on record?
A: The Potency was “inactive”.

Q: How did the Potency turn out when `O=C(Nc1ccccn1)c1ccc2c(c1)OCCO2` was run?
A: Its Potency is “inactive”.

Q: For `CCCCNC(=S)NNC(=O)c1csc(CC)c1`, which Potency is on record?
A: The Potency was inconclusive: 3.98 µM [inhibitor, partial curve, poor fit].

Q: How did the Potency turn out when `CCOC(=O)N1CCC(=NNc2ccc(S(N)(=O)=O)cc2[N+](=O)[O-])CC1` was run?
A: Its Potency is inconclusive: 11.2 µM [inhibitor, partial curve].

Q: With `O=C1CCCC2=C1C(c1ccc(O)c(O)c1)Nc1ccc3ncccc3c12` (stereo not given) as the compound, how does the Potency read?
A: The Potency was active: 2.82 µM.

Q: For `O=c1cc(-c2ccc(Cl)c(Cl)c2)[nH][nH]1`, which Potency is on record?
A: The Potency was inconclusive: 28 µM [inhibitor, single point].

Q: For `COc1cc(C(=O)N/N=C/c2ccc(OC)c(CN3CCN(c4ccc(F)cc4)CC3)c2)ccc1O`, which Potency is on record?
A: The Potency was inconclusive: 50.1 µM [inhibitor, single point].

Q: Which Potency does the source give for `COc1ccc2c(c1)CCC/C2=N\Nc1nc(C(=O)NN)cs1` here?
A: The Potency was inconclusive: 15.8 µM [inhibitor, partial curve].

Q: For `Cc1ccc(NC(=S)N/N=C2/CCCCc3ccccc32)cc1`, which Potency is on record?
A: The Potency was inconclusive: 22.4 µM [inhibitor, partial curve].

Q: Which Potency does the source give for `O=C(NN=C1CCCCCCCCCCC1)c1ccncc1` here?
A: The Potency was inconclusive: 35.5 µM [inhibitor, single point].

Q: Which Potency does the source give for `Clc1ccc2nc(CSc3ncn[nH]3)cn2c1` here?
A: The Potency was “inactive”.

Q: With `CC(C)CNc1oc(-c2ccc(F)cc2)nc1C#N` as the compound, how does the Potency read?
A: The Potency was inconclusive: 39.8 µM [inhibitor, single point].

Q: For `CSc1nsc(/C=C/Nc2ccc(C)cc2)c1C#N`, which Potency is on record?
A: Its Potency is inconclusive: 39.5 µM [activator, partial curve, poor fit].

Q: How did the Potency turn out when `O=C(O)c1ccccc1N/N=C/C1=C(N2CCOCC2)C(=C\c2ccccc2)/CC1` was run?
A: The Potency was inconclusive: 3.95 µM [inhibitor, full curve, poor fit].

Q: With `Cc1cc(=O)c2c(O)c(O)ccc2o1` as the compound, how does the Potency read?
A: The Potency was inconclusive: 39.5 µM [inhibitor, single point].

Q: With `COCc1cc(C)nc2sc3c(c12)NC(c1ccc(O)c(OC)c1)N(c1ccccc1)C3=O` (stereo not given) as the compound, how does the Potency read?
A: Its Potency is inconclusive: 2.24 µM [inhibitor, partial curve, poor fit].

Q: How did the Potency turn out when `CCC1CCCCN1CC(=O)c1c(C)[nH]c2ccc(OC)cc12` (stereo not given) was run?
A: The Potency was inconclusive: 28.2 µM [activator, single point].

Q: How did the Potency turn out when `Cc1cccc(NC(=O)N2CCN(C)c3ncccc32)c1C` was run?
A: The Potency was inconclusive: 22.4 µM [inhibitor, partial curve].

Q: How did the Potency turn out when `Cn1c(SCC(=O)CC(=O)Nc2ccccc2)nnc1-c1ccc(O)cc1` was run?
A: Its Potency is “inactive”.

Q: With `N#CC1=C2SCN(C3CCCCC3)CN2C(=O)CC1c1c(F)cccc1Cl` (stereo not given) as the compound, how does the Potency read?
A: The Potency was inconclusive: 39.8 µM [inhibitor, partial curve].

Q: How did the Potency turn out when `Cc1ccc(NC(=O)CC2Nc3cc(C)c(C)cc3NC2=O)c(C)c1` (stereo not given) was run?
A: Its Potency is inconclusive: 31.6 µM [activator, partial curve].

Q: With `Cn1cc([N+](=O)[O-])c(C(=O)N2CCCCCC2)n1` as the compound, how does the Potency read?
A: The Potency was “inactive”.

Q: `CCN1CCC2(CC1)Oc1c(OC)cccc1C1CC(c3cccnc3)=NN12` (stereo not given) was tested. Which Potency did it give?
A: Its Potency is inconclusive: 22.4 µM [inhibitor, partial curve].

Q: How did the Potency turn out when `Cc1ccc(CN=c2c([N+](=O)[O-])nn(-c3cccc(Cl)c3)n2O)cc1` was run?
A: The Potency was inconclusive: 56.2 µM [inhibitor, partial curve].

Q: Which Potency does the source give for `COc1cc(CNCc2ccncc2)cc(OC)c1OC` here?
A: Its Potency is inconclusive: 31.6 µM [inhibitor, partial curve].

Q: `O=C1N/C(=N/Nc2ccccc2)S/C1=C\c1ccccc1` was tested. Which Potency did it give?
A: The Potency was inconclusive: 14.1 µM [inhibitor, partial curve].

Q: For `Cc1ccc(CNc2ccc(N3CCOCC3)cc2)s1`, which Potency is on record?
A: The Potency was active: 28 µM.

Q: Which Potency does the source give for `O=C(NNc1cc(Cl)ccc1Cl)c1cccs1` here?
A: Its Potency is inconclusive: 31.6 µM [inhibitor, partial curve].

Q: How did the Potency turn out when `Cc1cc(NS(=O)(=O)c2ccccc2)c(C)c(Cl)c1O` was run?
A: Its Potency is active: 44.7 µM.

Q: With `CCOc1ccc(N2Nc3n[nH]c(N)c3N2)cc1` as the compound, how does the Potency read?
A: The Potency was active: 22.4 µM.

Q: With `Cc1ccc(/C(O)=C2\C(=O)C(=O)N(C)C2c2ccccc2[N+](=O)[O-])cc1` (stereo not given) as the compound, how does the Potency read?
A: Its Potency is “inactive”.

Q: `COc1cc(CN2CCN(Cc3ccc(SC)cc3)CC2)cc(OC)c1O` was tested. Which Potency did it give?
A: The Potency was inconclusive: 5.01 µM [inhibitor, full curve].

Q: For `CCCCNC(=O)C1(NC(=O)Nc2ccc(C)cc2)CCCCC1`, which Potency is on record?
A: Its Potency is inconclusive: 31.6 µM [inhibitor, single point].

Q: For `C=CCOc1cccc(CNc2ccc3[nH]c(=O)[nH]c3c2)c1`, which Potency is on record?
A: Its Potency is active: 28.2 µM.

Q: `O=C(O)Cc1sc(Nc2ccccc2)nc1-c1ccccc1` was tested. Which Potency did it give?
A: Its Potency is inconclusive: 20 µM [inhibitor, partial curve].

Q: For `Cc1cc(NC(=S)Nc2ccc(C)c(Cl)c2)n[nH]1`, which Potency is on record?
A: Its Potency is inconclusive: 25.1 µM [inhibitor, partial curve].

Q: How did the Potency turn out when `CCC(C)c1ccc(NC(=S)NCc2ccccc2OC)cc1` (stereo not given) was run?
A: The Potency was “inactive”.
